According to the supplement of paper PMC4604168 (melanoma cell lines):
This is one part of the list. Single values are uncertain, as repeats are few or missing.

Legend:
Test in all cases: cell count relative to DMSO control; melanoma cells; higher = more viable cells
Settings in all cases: library dose: standard library concentration; 72 h
A101D = system: A101D
A2058 = system: A2058
A375 = system: A375
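Further: cells treated in 1,536-well plates, then fixed and DAPI-stained, with nuclei counted from automated high-throughput microscope images.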

Compound | cell count (A101D) | cell count (A2058) | cell count (A375)
CC1(C)CCC(c2ccc(Cl)cc2)=C(CN2CCN(c3ccc(C(=O)NS(=O)(=O)c4ccc(N[C@H](CCN5CCOCC5)CSc5ccccc5)c(S(=O)(=O)C(F)(F)F)c4)cc3)CC2)C1 + C[C@]1(O)C[C@@H](c2nc(-c3ccc4ccc(-c5ccccc5)nc4c3)c3c(N)nccn32)C1 [OSI906] (first compound 2 µM, partner dose 2 µM) | 38% | 81.2% | 46.2%
Cc1ccc(Nc2nccc(N(C)c3ccc4c(C)n(C)nc4c3)n2)cc1S(N)(=O)=O [Pazopanib] + Cc1cc(Nc2cc(N3CCN(C)CC3)nc(/C=C/c3ccccc3)n2)n[nH]1 [ENMD2076] (first compound 2 µM, partner dose 0.2 µM) | 81% | 81.2% | 84.5%
CC1(C)CCC(c2ccc(Cl)cc2)=C(CN2CCN(c3ccc(C(=O)NS(=O)(=O)c4ccc(N[C@H](CCN5CCOCC5)CSc5ccccc5)c(S(=O)(=O)C(F)(F)F)c4)cc3)CC2)C1 + O=C(Nc1cccc(Cl)c1)Nc1ncc(CCNc2ncnc3ccsc23)s1 [SNS314] (first compound 2 µM, partner dose 0.004 µM) | 37.9% | 55.8% | 69.2%
Cc1ccc(Nc2nccc(N(C)c3ccc4c(C)n(C)nc4c3)n2)cc1S(N)(=O)=O [Pazopanib] + CN(C)S(=O)(=O)c1ccc2c(c1)/C(=C/c1cc3c([nH]1)CCCC3)C(=O)N2 [SU6656] (first compound 2 µM, partner dose 2 µM) | 62.8% | 84% | 111%
CC1(C)CCC(c2ccc(Cl)cc2)=C(CN2CCN(c3ccc(C(=O)NS(=O)(=O)c4ccc(N[C@H](CCN5CCOCC5)CSc5ccccc5)c(S(=O)(=O)C(F)(F)F)c4)cc3)CC2)C1 + CC(=O)c1c(C)c2cnc(Nc3ccc(N4CCNCC4)cn3)nc2n(C2CCCC2)c1=O [palbociclib] (first compound 2 µM, partner dose 0.2 µM) | 57.3% | 96.3% | 57.4%
O=C(/C=C/c1cccnc1)NCCCCC1CCN(C(=O)c2ccccc2)CC1 + Cc1cc(N2CCOCC2)cc2[nH]c(-c3c(NC[C@@H](O)c4cccc(Cl)c4)cc[nH]c3=O)nc12 [BMS536924] (first compound 0.05 µM, partner dose 1 µM) | 77.2% | 80.1% | 112%
O=C(/C=C/c1cccnc1)NCCCCC1CCN(C(=O)c2ccccc2)CC1 + CC(C)(C)c1cnc(CSc2cnc(NC(=O)C3CCNCC3)s2)o1 [SNS-032] (first compound 0.05 µM, partner dose 0.05 µM) | 84.1% | 78.7% | 96.7%
CC1(C)CCC(c2ccc(Cl)cc2)=C(CN2CCN(c3ccc(C(=O)NS(=O)(=O)c4ccc(N[C@H](CCN5CCOCC5)CSc5ccccc5)c(S(=O)(=O)C(F)(F)F)c4)cc3)CC2)C1 + Cc1cn(-c2cc(NC(=O)c3ccc(C)c(Nc4nccc(-c5cccnc5)n4)c3)cc(C(F)(F)F)c2)cn1 [nilotinib] (first compound 2 µM, partner dose 1 µM) | 38.4% | 67.9% | 87.5%
Cc1ccc(Nc2nccc(N(C)c3ccc4c(C)n(C)nc4c3)n2)cc1S(N)(=O)=O [Pazopanib] + CS(=O)(=O)c1ccc(C(=O)Nc2ccc(Cl)c(-c3ccccn3)c2)c(Cl)c1 [vismodegib] (first compound 2 µM, partner dose 5 µM) | 107% | 115% | 102%
CC1(C)CCC(c2ccc(Cl)cc2)=C(CN2CCN(c3ccc(C(=O)NS(=O)(=O)c4ccc(N[C@H](CCN5CCOCC5)CSc5ccccc5)c(S(=O)(=O)C(F)(F)F)c4)cc3)CC2)C1 + COCC[n+]1c2c(n(Cc3cnccn3)c1C)C(=O)c1ccccc1C2=O [YM155] (first compound 2 µM, partner dose 0.002 µM) | 35.7% | 10.6% | 29.1%
CC1(C)CCC(c2ccc(Cl)cc2)=C(CN2CCN(c3ccc(C(=O)NS(=O)(=O)c4ccc(N[C@H](CCN5CCOCC5)CSc5ccccc5)c(S(=O)(=O)C(F)(F)F)c4)cc3)CC2)C1 + CC1(C)NC(=O)N(c2ccc([N+](=O)[O-])c(C(F)(F)F)c2)C1=O [nilutamide] (first compound 2 µM, partner dose 5 µM) | 43% | 81.3% | 64.7%
Cc1ccc(Nc2nccc(N(C)c3ccc4c(C)n(C)nc4c3)n2)cc1S(N)(=O)=O [Pazopanib] + NC(=O)c1ccc(N(C(N)=O)c2c(F)cccc2F)nc1-c1ccc(F)cc1F [VX702] (first compound 2 µM, partner dose 2 µM) | 123% | 108% | 90.1%
O=C(/C=C/c1cccnc1)NCCCCC1CCN(C(=O)c2ccccc2)CC1 + Cn1nnc2c(C(N)=O)ncn2c1=O [temozolomide] (first compound 0.05 µM, partner dose 10 µM) | 97.5% | 52.1% | 108%
Cc1ccc(Nc2nccc(N(C)c3ccc4c(C)n(C)nc4c3)n2)cc1S(N)(=O)=O [Pazopanib] + CC(=O)c1c(C)c2cnc(Nc3ccc(N4CCNCC4)cn3)nc2n(C2CCCC2)c1=O [palbociclib] (first compound 2 µM, partner dose 0.2 µM) | 64.1% | 98.7% | 74.7%
Cc1ccc(Nc2nccc(N(C)c3ccc4c(C)n(C)nc4c3)n2)cc1S(N)(=O)=O [Pazopanib] + CCN(CC)CCNC(=O)c1c(C)[nH]c(/C=C2\C(=O)Nc3ccc(F)cc32)c1C [sunitinib] (first compound 2 µM, partner dose 2 µM) | 68.5% | 82.4% | 104%
CC1(C)CCC(c2ccc(Cl)cc2)=C(CN2CCN(c3ccc(C(=O)NS(=O)(=O)c4ccc(N[C@H](CCN5CCOCC5)CSc5ccccc5)c(S(=O)(=O)C(F)(F)F)c4)cc3)CC2)C1 + Nc1cccc2c1CN(C1CCC(=O)NC1=O)C2=O [lenalidomide] (first compound 2 µM, partner dose 5 µM) | 38.9% | 82.9% | 77.2%
Cc1ccc(Nc2nccc(N(C)c3ccc4c(C)n(C)nc4c3)n2)cc1S(N)(=O)=O [Pazopanib] + C=CCNC1=C2C[C@@H](C)C[C@H](OC)[C@H](O)[C@@H](C)/C=C(\C)[C@H](OC(N)=O)[C@@H](OC)/C=C\C=C(/C)C(=O)NC(=CC1=O)C2=O [Tanespimycin] (first compound 2 µM, partner dose 0.01 µM) | 72% | 94.7% | 81.6%
Cc1ccc(Nc2nccc(N(C)c3ccc4c(C)n(C)nc4c3)n2)cc1S(N)(=O)=O [Pazopanib] + NC(=O)Nc1cc(-c2cccc(F)c2)sc1C(=O)N[C@H]1CCCNC1 [AZD7762] (first compound 2 µM, partner dose 0.1 µM) | 68.1% | 97.9% | 65.8%
Cc1ccc(Nc2nccc(N(C)c3ccc4c(C)n(C)nc4c3)n2)cc1S(N)(=O)=O [Pazopanib] + C[C@]1(O)C[C@@H](c2nc(-c3ccc4ccc(-c5ccccc5)nc4c3)c3c(N)nccn32)C1 [OSI906] (first compound 2 µM, partner dose 2 µM) | 69.9% | 92.6% | 91.8%
Cc1ccc(Nc2nccc(N(C)c3ccc4c(C)n(C)nc4c3)n2)cc1S(N)(=O)=O [Pazopanib] + O=C(O)c1ccc(-c2c[nH]c3ncc(-c4ccccc4)cc23)cc1C1CCCC1 [GSK650394] (first compound 2 µM, partner dose 0.8 µM) | 74% | 86.6% | 100%
O=C(/C=C/c1cccnc1)NCCCCC1CCN(C(=O)c2ccccc2)CC1 + Cn1cncc1[C@@](N)(c1ccc(Cl)cc1)c1ccc2c(c1)c(-c1cccc(Cl)c1)cc(=O)n2C [tipifarnib] (first compound 0.05 µM, partner dose 0.05 µM) | 66.8% | 83.5% | 76.5%
Cc1ccc(Nc2nccc(N(C)c3ccc4c(C)n(C)nc4c3)n2)cc1S(N)(=O)=O [Pazopanib] + C[C@@H]1CCN(C(=O)CC#N)C[C@@H]1N(C)c1ncnc2[nH]ccc12 [CP690550] (first compound 2 µM, partner dose 5 µM) | 98.7% | 112% | 76.2%
O=C(/C=C/c1cccnc1)NCCCCC1CCN(C(=O)c2ccccc2)CC1 + COCC[n+]1c2c(n(Cc3cnccn3)c1C)C(=O)c1ccccc1C2=O [YM155] (first compound 0.05 µM, partner dose 0.002 µM) | 57.1% | 18.7% | 76.4%
Cc1ccc(Nc2nccc(N(C)c3ccc4c(C)n(C)nc4c3)n2)cc1S(N)(=O)=O [Pazopanib] + OCc1c[nH]c2ccccc12 [Indole-3-carbinol] (first compound 2 µM, partner dose 4 µM) | 100% | 87.9% | 91.4%
Cc1ccc(Nc2nccc(N(C)c3ccc4c(C)n(C)nc4c3)n2)cc1S(N)(=O)=O [Pazopanib] + NC1(c2ccc(-c3nc4ccn5c(=O)[nH]nc5c4cc3-c3ccccc3)cc2)CCC1 [MK2206] (first compound 2 µM, partner dose 2 µM) | 90.3% | 94.9% | 102%
CC1(C)CCC(c2ccc(Cl)cc2)=C(CN2CCN(c3ccc(C(=O)NS(=O)(=O)c4ccc(N[C@H](CCN5CCOCC5)CSc5ccccc5)c(S(=O)(=O)C(F)(F)F)c4)cc3)CC2)C1 + NCC(=O)Nc1ccc(-n2nc(C(F)(F)F)cc2-c2ccc3c(ccc4ccccc43)c2)cc1 [OSU03012] (first compound 2 µM, partner dose 5 µM) | 21.1% | 83.4% | 21%
